# Values joined by “and” are separate entries in the source; they are usually repeats but may differ in a detail not shown here. Equal entries are not always repeated. In all, about 2,900 compounds were measured (“IRF Lucia reporter activity, fold change vs agonist alone”: median about 0.9, highest 2% from about 2.8 on). The list shows a part of the results.
# How the values were obtained:
# RAW-Dual [1] = assay: IRF Lucia reporter activity, fold change vs agonist alone; cytotoxicity flag (confluency mask): not cytotoxic; higher = enhanced IRF activity
# Procedure, shortened: (§1)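 Library stock was pin-tooled at 50 nL into 384-well plates of RAW-Dual macrophages (50,000 cells/well, DMEM), followed 1 h later by a PRR agonist, and the cells were kept at 37 °C, 5% CO2. Supernatant collected after 20 hours was read for IRF by QuantiLuc luminescence and for NF-κB by QuantiBlue absorbance at 620 nm. Reporter activity is fold change over agonist-alone wells, and a well counted as cytotoxic when its IncuCyte confluency was below 70% of agonist controls in both mask sets.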
# RAW-Dual [2] = assay: IRF Lucia reporter activity, fold change vs agonist alone; higher = enhanced IRF activity; details: library stock concentration (final ~1000-fold dilution): 10 mM, agonist: MPLA (TLR4) […]
# Procedure, shortened: as §1
# RAW-Dual [3] = assay: IRF Lucia reporter activity, fold change vs agonist alone; cytotoxicity flag (confluency mask): cytotoxic (confluency <70% of control); higher = enhanced IRF activity
# Procedure, shortened: as §1
# [4] = agonist: 3'3'-cGAMP (STING) 10 ug/mL
# [5] = cytotoxicity flag (confluency mask): not cytotoxic
# [6] = cytotoxicity flag (confluency mask): cytotoxic (confluency <70% of control)
structure (smiles),measurement,setting,value
O=C(O)c1cc(O)c2c(c1)C(C1c3cc(C(=O)O)cc(O)c3C(=O)c3c(OC4OC(CO)C(O)C(O)C4O)cccc31)c1cccc(OC3OC(CO)C(O)C(O)C3O)c1C2=O (stereo unspecified) (library stock concentration (final ~1000-fold dilution): 10 mM),IRF Lucia reporter activity,RAW-Dual [1]; [4],0.928
same,IRF Lucia reporter activity,RAW-Dual [1]; agonist: LPS (TLR4) 0.1 ug/mL,0.947
COc1ccc2cc(CCC(C)=O)ccc2c1 (library stock concentration (final ~1000-fold dilution): 10 mM),IRF Lucia reporter activity,RAW-Dual [1]; [4],0.841
same,IRF Lucia reporter activity,RAW-Dual [1]; agonist: LPS (TLR4) 0.1 ug/mL,1.11
COc1ccc2cc(CCC(C)=O)ccc2c1,IRF Lucia reporter activity,RAW-Dual [2]; [5],1.05
CCn1cc(C(=O)O)c(=O)c2ccc(C)nc21,IRF Lucia reporter activity,RAW-Dual [2]; [5],1.1
CCn1cc(C(=O)O)c(=O)c2ccc(C)nc21 (library stock concentration (final ~1000-fold dilution): 10 mM),IRF Lucia reporter activity,RAW-Dual [1]; [4],1.05
same,IRF Lucia reporter activity,RAW-Dual [1]; agonist: LPS (TLR4) 0.1 ug/mL,1.07
CN(C)c1ccc(C(=O)NCCCCCCC(=O)NO)cc1 (library stock concentration (final ~1000-fold dilution): 10 mM),IRF Lucia reporter activity,RAW-Dual [3]; [4],0.14
same,IRF Lucia reporter activity,RAW-Dual [3]; agonist: LPS (TLR4) 0.1 ug/mL,0.353
CN(C)c1ccc(C(=O)NCCCCCCC(=O)NO)cc1,IRF Lucia reporter activity,RAW-Dual [2]; [6],0.439
CC(=O)OC12COC1CC(O)C1(C)C(=O)C(O)C3=C(C)C(OC(=O)C(O)C(NC(=O)OC(C)(C)C)c4ccccc4)CC(O)(C(OC(=O)c4ccccc4)C21)C3(C)C (stereo unspecified) (library stock concentration (final ~1000-fold dilution): 10 mM),IRF Lucia reporter activity,RAW-Dual [1]; [4],0.737
same,IRF Lucia reporter activity,RAW-Dual [1]; agonist: LPS (TLR4) 0.1 ug/mL,0.79
CC(=O)OC12COC1CC(O)C1(C)C(=O)C(O)C3=C(C)C(OC(=O)C(O)C(NC(=O)OC(C)(C)C)c4ccccc4)CC(O)(C(OC(=O)c4ccccc4)C21)C3(C)C (stereo unspecified),IRF Lucia reporter activity,RAW-Dual [2]; [5],0.856
Brc1ccc(CCCCn2ccnc2)cc1 (library stock concentration (final ~1000-fold dilution): 10 mM),IRF Lucia reporter activity,RAW-Dual [1]; [4],0.855 and 0.877
same,IRF Lucia reporter activity,RAW-Dual [1]; agonist: LPS (TLR4) 0.1 ug/mL,1.03 and 0.678
COc1ccc(C2OCC3C(c4cc(OC)c(OC)c(OC)c4)OCC23)cc1OC (stereo unspecified) (library stock concentration (final ~1000-fold dilution): 10 mM),IRF Lucia reporter activity,RAW-Dual [1]; [4],1.1
same,IRF Lucia reporter activity,RAW-Dual [1]; agonist: LPS (TLR4) 0.1 ug/mL,0.811
COC1C(=O)C2(C)C(OC)CC3OCC3(OC(C)=O)C2C(OC(=O)c2ccccc2)C2(O)CC(OC(=O)C(O)C(NC(=O)OC(C)(C)C)c3ccccc3)C(C)=C1C2(C)C (stereo unspecified),IRF Lucia reporter activity,RAW-Dual [2]; [5],0.471
COC1C(=O)C2(C)C(OC)CC3OCC3(OC(C)=O)C2C(OC(=O)c2ccccc2)C2(O)CC(OC(=O)C(O)C(NC(=O)OC(C)(C)C)c3ccccc3)C(C)=C1C2(C)C (stereo unspecified) (library stock concentration (final ~1000-fold dilution): 10 mM),IRF Lucia reporter activity,RAW-Dual [1]; [4],0.47
same,IRF Lucia reporter activity,RAW-Dual [1]; agonist: LPS (TLR4) 0.1 ug/mL,0.528
O=C(CCCN1CC=C(n2c(=O)[nH]c3ccccc32)CC1)c1ccc(F)cc1,IRF Lucia reporter activity,RAW-Dual [2]; [5],1.12
O=C(CCCN1CC=C(n2c(=O)[nH]c3ccccc32)CC1)c1ccc(F)cc1 (library stock concentration (final ~1000-fold dilution): 10 mM),IRF Lucia reporter activity,RAW-Dual [1]; [4],0.988
same,IRF Lucia reporter activity,RAW-Dual [1]; agonist: LPS (TLR4) 0.1 ug/mL,1.44
Cc1ccc(NC(=O)c2ccc(CN3CCN(C)CC3)cc2)cc1Nc1nc(-c2cccnc2)cs1 (library stock concentration (final ~1000-fold dilution): 10 mM),IRF Lucia reporter activity,RAW-Dual [3]; [4],0.928
same,IRF Lucia reporter activity,RAW-Dual [3]; agonist: LPS (TLR4) 0.1 ug/mL,0.441
Cc1ccc(NC(=O)c2ccc(CN3CCN(C)CC3)cc2)cc1Nc1nc(-c2cccnc2)cs1,IRF Lucia reporter activity,RAW-Dual [2]; [6],1.42
CN(C)Cc1cccc(N/C(=C2\C(=O)Nc3cc(C(=O)N(C)C)ccc32)c2ccccc2)c1,IRF Lucia reporter activity,RAW-Dual [2]; [5],0.786
CN(C)Cc1cccc(N/C(=C2\C(=O)Nc3cc(C(=O)N(C)C)ccc32)c2ccccc2)c1 (library stock concentration (final ~1000-fold dilution): 10 mM),IRF Lucia reporter activity,RAW-Dual [1]; [4],0.681
same,IRF Lucia reporter activity,RAW-Dual [1]; agonist: LPS (TLR4) 0.1 ug/mL,0.823
O=C(Nc1cc(C(F)(F)F)ccc1N1CCCCC1)c1ccncc1 (library stock concentration (final ~1000-fold dilution): 10 mM),IRF Lucia reporter activity,RAW-Dual [1]; [4],1.05
same,IRF Lucia reporter activity,RAW-Dual [1]; agonist: LPS (TLR4) 0.1 ug/mL,0.874
O=C(Nc1cc(C(F)(F)F)ccc1N1CCCCC1)c1ccncc1,IRF Lucia reporter activity,RAW-Dual [2]; [5],1.18
COc1cc2nc(N3CCN(C(=O)c4ccco4)CC3)nc(N)c2cc1OC,IRF Lucia reporter activity,RAW-Dual [2]; [5],1.19
COc1cc2nc(N3CCN(C(=O)c4ccco4)CC3)nc(N)c2cc1OC (library stock concentration (final ~1000-fold dilution): 10 mM),IRF Lucia reporter activity,RAW-Dual [1]; [4],0.816
same,IRF Lucia reporter activity,RAW-Dual [1]; agonist: LPS (TLR4) 0.1 ug/mL,0.869
O=c1cc(-c2ccccc2)oc2cc(OC3OC(CO)C(O)C(O)C3O)c(O)c(O)c12 (stereo unspecified) (library stock concentration (final ~1000-fold dilution): 10 mM),IRF Lucia reporter activity,RAW-Dual [1]; [4],0.862
same,IRF Lucia reporter activity,RAW-Dual [1]; agonist: LPS (TLR4) 0.1 ug/mL,0.849
CN(C)CCSSCCNC(=O)C1CCN(C(=O)CSc2ccc(Cl)cc2)CC1.O=C(O)C(F)(F)F,IRF Lucia reporter activity,RAW-Dual [2]; [5],0.751
CN(C)CCSSCCNC(=O)C1CCN(C(=O)CSc2ccc(Cl)cc2)CC1.O=C(O)C(F)(F)F (library stock concentration (final ~1000-fold dilution): 10 mM),IRF Lucia reporter activity,RAW-Dual [1]; [4],0.396
same,IRF Lucia reporter activity,RAW-Dual [1]; agonist: LPS (TLR4) 0.1 ug/mL,0.778

# — the supplement of paper PMC10037445
